# Some of the results follow.
# Legend:
# Test in all cases: glycan array binding signal (z-score within array); higher = stronger binding
# Conditions in all cases: glycan notation: IUPAC condensed, linker removed
# [1] = molecular target: Fuc(a1-3)[Gal3S(b1-4)]GlcNAc6S
# Procedure, shortened: (§1)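 The binding signal is a Z-score computed within each array. Data were drawn from 3228 arrays in the Consortium for Functional Glycomics database, restricted to those with a known protein sequence. Scores were averaged over arrays of the same protein sequence at different concentrations or buffers, and over linkers, and negative values can be taken as non-binding.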
# [2] = molecular target: Fuc(a1-3)[GalNAc(b1-4)]GlcNAc
# Procedure, shortened: as §1
# [3] = molecular target: Fuc(a1-3)[GalNAc(b1-4)]GlcNAc6S
# Procedure, shortened: as §1
# [4] = molecular target: Fuc(a1-4)GlcNAc
# Procedure, shortened: as §1
# [5] = molecular target: Fuc(b1-3)GlcNAc
# Procedure, shortened: as §1
# [6] = molecular target: Gal(a1-2)Gal
# Procedure, shortened: as §1
# [7] = molecular target: Gal(a1-3)Gal
# Procedure, shortened: as §1
# [8] = molecular target: Gal(a1-3)Gal(b1-3)GlcNAc
# Procedure, shortened: as §1
# [9] = molecular target: Gal(a1-3)Gal(b1-3)GlcNAc(b1-2)Man
# Procedure, shortened: as §1
# [10] = molecular target: Gal(a1-3)Gal(b1-3)GlcNAc(b1-2)Man(a1-3)[Gal(a1-3)Gal(b1-3)GlcNAc(b1-2)Man(a1-6)]Man(b1-4)GlcNAc(b1-4)GlcNAc
# Procedure, shortened: as §1
# [11] = molecular target: Gal(a1-3)Gal(b1-3)GlcNAc(b1-3)GalNAc
# Procedure, shortened: as §1
# [12] = molecular target: Gal(a1-3)Gal(b1-3)GlcNAc(b1-6)GalNAc
# Procedure, shortened: as §1
# [13] = molecular target: Gal(a1-3)Gal(b1-3)[Fuc(a1-4)]GlcNAc(b1-2)Man(a1-3)[Gal(a1-3)Gal(b1-3)[Fuc(a1-4)]GlcNAc(b1-2)Man(a1-6)]Man(b1-4)GlcNAc(b1-4)GlcNAc
# Procedure, shortened: as §1
# [14] = molecular target: Gal(a1-3)Gal(b1-4)Glc
# Procedure, shortened: as §1
# [15] = molecular target: Gal(a1-3)Gal(b1-4)GlcNAc
# Procedure, shortened: as §1
# [16] = molecular target: Gal(a1-3)Gal(b1-4)GlcNAc(b1-2)Man
# Procedure, shortened: as §1
# [17] = molecular target: Gal(a1-3)Gal(b1-4)GlcNAc(b1-2)Man(a1-3)[Gal(a1-3)Gal(b1-4)GlcNAc(b1-2)Man(a1-6)]Man(b1-4)GlcNAc(b1-4)GlcNAc
# Procedure, shortened: as §1
# [18] = molecular target: Gal(a1-3)Gal(b1-4)GlcNAc(b1-3)GalNAc
# Procedure, shortened: as §1
# [19] = molecular target: Gal(a1-3)Gal(b1-4)GlcNAc(b1-6)GalNAc
# Procedure, shortened: as §1
# [20] = molecular target: Gal(a1-3)Gal(b1-4)[Fuc(a1-3)]GlcNAc
# Procedure, shortened: as §1
# [21] = molecular target: Gal(a1-3)Gal(b1-4)[Fuc(a1-3)]GlcNAc(b1-2)Man(a1-3)[Gal(a1-3)Gal(b1-4)[Fuc(a1-3)]GlcNAc(b1-2)Man(a1-6)]Man(b1-4)GlcNAc(b1-4)GlcNAc
# Procedure, shortened: as §1
# [22] = molecular target: Gal(a1-3)GalNAc
# Procedure, shortened: as §1
# [23] = molecular target: Gal(a1-3)[Gal(a1-4)]Gal(b1-4)GlcNAc
# Procedure, shortened: as §1
# [24] = molecular target: Gal(a1-4)Gal(b1-3)GlcNAc(b1-2)Man(a1-3)[Gal(a1-4)Gal(b1-3)GlcNAc(b1-2)Man(a1-6)]Man(b1-4)GlcNAc(b1-4)GlcNAc
# Procedure, shortened: as §1
# [25] = molecular target: Gal(a1-4)Gal(b1-4)Glc
# Procedure, shortened: as §1
# [26] = molecular target: Gal(a1-4)Gal(b1-4)GlcNAc
# Procedure, shortened: as §1
# [27] = molecular target: Gal(a1-4)Gal(b1-4)GlcNAc(b1-2)Man(a1-3)[Gal(a1-4)Gal(b1-4)GlcNAc(b1-2)Man(a1-6)]Man(b1-4)GlcNAc(b1-4)GlcNAc
# Procedure, shortened: as §1
# [28] = molecular target: Gal(a1-4)Gal(b1-4)GlcNAc(b1-3)Gal(b1-4)Glc
# Procedure, shortened: as §1
# [29] = molecular target: Gal(a1-4)GlcNAc
# Procedure, shortened: as §1
# [30] = molecular target: Gal(a1-6)Glc
# Procedure, shortened: as §1
# [31] = molecular target: Gal(b1-2)Gal
# Procedure, shortened: as §1
# [32] = molecular target: Gal(b1-3)Gal
# Procedure, shortened: as §1
# [33] = molecular target: Gal(b1-3)Gal(b1-4)GlcNAc
# Procedure, shortened: as §1
# [34] = molecular target: Gal(b1-3)GalNAc
# Procedure, shortened: as §1
# [35] = molecular target: Gal(b1-3)GalNAc(a1-3)[Fuc(a1-2)]Gal(b1-4)Glc
# Procedure, shortened: as §1
# [36] = molecular target: Gal(b1-3)GalNAc(a1-3)[Fuc(a1-2)]Gal(b1-4)GlcNAc
# Procedure, shortened: as §1
# [37] = molecular target: Gal(b1-3)GalNAc(b1-3)Gal
# Procedure, shortened: as §1
# [38] = molecular target: Gal(b1-3)GalNAc(b1-3)Gal(a1-4)Gal(b1-4)Glc
# Procedure, shortened: as §1
# [39] = molecular target: Gal(b1-3)GalNAc(b1-4)Gal(b1-4)Glc
# Procedure, shortened: as §1
# [40] = molecular target: Gal(b1-3)GalNAc(b1-4)[Neu5Ac(a2-3)]Gal(b1-4)Glc
# Procedure, shortened: as §1
# [41] = molecular target: Gal(b1-3)GlcNAc
# Procedure, shortened: as §1
# [42] = molecular target: Gal(b1-3)GlcNAc(a1-3)Gal(b1-4)GlcNAc
# Procedure, shortened: as §1
# [43] = molecular target: Gal(b1-3)GlcNAc(a1-6)Gal(b1-4)GlcNAc
# Procedure, shortened: as §1
# [44] = molecular target: Gal(b1-3)GlcNAc(b1-2)Man
# Procedure, shortened: as §1
# [45] = molecular target: Gal(b1-3)GlcNAc(b1-2)Man(a1-3)[Gal(b1-3)GlcNAc(b1-2)Man(a1-6)]Man(b1-4)GlcNAc(b1-4)GlcNAc
# Procedure, shortened: as §1
binder,measurement,setting,value
Tamarinin (protein) CDDSARAGNIVVYWGQGGSDNSEGSLKEACKSGHYNMIVLQQLIVYDDGRDPDLNLGAHCSDCTKLEEQIKYCQNKDIKILLQIGQVVPTQEDVKDVTKNLSEYLLKNFFSGKSGPLGEVYLNGIDIASVPEGNNLKFDELVEALNDSSTERRIYLSASPLCVYPDYYLNKAIQTEKLDFLFVQFFYQNPCIYTEGNPENLFEAMKTWTKNVPESMIFMALPATPNLDGYIPPRVLNKEILPAVSEASNFAGVMIFDRYFDRFRKYSSKIK,glycan array binding signal (z-score),[1],-0.15
same,glycan array binding signal (z-score),[2],-0.154
same,glycan array binding signal (z-score),[3],0.982
same,glycan array binding signal (z-score),[4],-0.282
same,glycan array binding signal (z-score),[5],-0.048
same,glycan array binding signal (z-score),[6],-0.001
same,glycan array binding signal (z-score),[7],-0.391
same,glycan array binding signal (z-score),[8],-0.375
same,glycan array binding signal (z-score),[9],-0.144
same,glycan array binding signal (z-score),[10],0.365
same,glycan array binding signal (z-score),[11],0.753
same,glycan array binding signal (z-score),[12],-0.253
same,glycan array binding signal (z-score),[13],1.86
same,glycan array binding signal (z-score),[14],-0.41
same,glycan array binding signal (z-score),[15],-0.348
same,glycan array binding signal (z-score),[16],-0.302
same,glycan array binding signal (z-score),[17],-0.05
same,glycan array binding signal (z-score),[18],-0.324
same,glycan array binding signal (z-score),[19],-0.388
same,glycan array binding signal (z-score),[20],-0.374
same,glycan array binding signal (z-score),[21],0.666
same,glycan array binding signal (z-score),[22],-0.21
same,glycan array binding signal (z-score),[23],-0.349
same,glycan array binding signal (z-score),[24],1.18
same,glycan array binding signal (z-score),[25],-0.04
same,glycan array binding signal (z-score),[26],-0.384
same,glycan array binding signal (z-score),[27],0.837
same,glycan array binding signal (z-score),[28],0.884
same,glycan array binding signal (z-score),[29],0.001
same,glycan array binding signal (z-score),[30],0.165
same,glycan array binding signal (z-score),[31],-0.111
same,glycan array binding signal (z-score),[32],-0.08
same,glycan array binding signal (z-score),[33],11.2
same,glycan array binding signal (z-score),[34],-0.241
same,glycan array binding signal (z-score),[35],-0.437
same,glycan array binding signal (z-score),[36],-0.14
same,glycan array binding signal (z-score),[37],-0.319
same,glycan array binding signal (z-score),[38],-0.212
same,glycan array binding signal (z-score),[39],1.29
same,glycan array binding signal (z-score),[40],0.694
same,glycan array binding signal (z-score),[41],-0.283
same,glycan array binding signal (z-score),[42],-0.252
same,glycan array binding signal (z-score),[43],-0.048
same,glycan array binding signal (z-score),[44],-0.169
same,glycan array binding signal (z-score),[45],-0.258
